Results published in a collection of fitness landscapes (doi:10.1126/science.1257360).
This is one part of the list.

B1: PhoQ; a variant is named by its letters at X, in order, P23837 (parent)
chain: MKKLLRLFFPLSLRVRFLLATAAVVLVLSLAYGMVALIGYSVSFDKTTFRLLRGESNLFYTLAKWENNKLHVELPENIDKQSPTMTLIYDENGQLLWAQRDVPWLMKMIQPDWLKSNGFHEIEADVNDTSLLLSGDHSIQQQLQEVREDDDDAEMTHSVAVNVYPATSRMPKLTIVVVDTIPVELKSSYMVWSWFIYVLSANLLLVIPLLWVAAWWSLRPIEALAKEVRELEEHNRELLNPATTRELTSLVRNLNRLLKSERERYDKYRTTLTDLTHSLKTPLXXLQXXLRSLRSEKMSVSDAEPVMLEQISRISQQIGYYLHRASMRGGTLLSRELHPVAPLLDNLTSALNKVYQRKGVNISLDISPEISFVGEQNDFVEVMGNVLDNACKYCLEFVEISARQTDEHLYIVVEDDGPGIPLSKREVIFDRGQRVDTLRPGQGVGLAVAREITEQYEGKIVAGESMLGGARMEVIFGRQHSAPKDE

Variants of: B1
Experiment: enrichment ratio after two sorts for PhoP signalling (ratio (wild type AVST 3.29)); higher = more functional
Settings: with PhoP (E. coli)

Variant | enrichment ratio
DVKD | ≤ 0.25
QMKY | ≤ 0.25
SNGN | 4.56
SFFD | ≤ 0.25
YIKF | ≤ 0.25
HHRE | ≤ 0.25
KQDC | ≤ 0.25
VANA | ≤ 0.25
PTVF | ≤ 0.25
NTCY | ≤ 0.25
IYYP | ≤ 0.25
HYFH | ≤ 0.25
KTCQ | ≤ 0.25
AFQE | ≤ 0.25
YMVG | 0.44
SRPR | ≤ 0.25
YFDW | ≤ 0.25
QRHV | ≤ 0.25
DYIV | ≤ 0.25
FWRF | ≤ 0.25
HQSQ | ≤ 0.25
HQNV | ≤ 0.25
NRQA | ≤ 0.25
RFAS | ≤ 0.25
VKAQ | ≤ 0.25
RHWI | ≤ 0.25

Variant | enrichment ratio
QYYL | ≤ 0.25
EIVY | ≤ 0.25
QGCE | ≤ 0.25
LQQI | ≤ 0.25
TKNV | ≤ 0.25
YDKI | ≤ 0.25
LVPT | ≤ 0.25
HVAL | ≤ 0.25
RCHK | ≤ 0.25
DQRI | ≤ 0.25
TCLW | ≤ 0.25
HWSN | ≤ 0.25
TGNW | ≤ 0.25
KYPS | ≤ 0.25
HWYY | ≤ 0.25
PHSM | ≤ 0.25
IFWG | ≤ 0.25
QPKV | ≤ 0.25
MRWP | ≤ 0.25
ENPW | ≤ 0.25
PQNT | ≤ 0.25
NLDE | ≤ 0.25
IKKL | ≤ 0.25
PGCM | ≤ 0.25
DLQH | ≤ 0.25
MLDP | ≤ 0.25

Variant | enrichment ratio
KRVY | ≤ 0.25
RIRY | ≤ 0.25
NRLC | ≤ 0.25
PNRR | ≤ 0.25
PVKQ | ≤ 0.25
NLCR | ≤ 0.25
GHRR | ≤ 0.25
SIDG | ≤ 0.25
SMID | ≤ 0.25
ANWF | ≤ 0.25
WDVP | ≤ 0.25
AIII | 1.5
HNQP | ≤ 0.25
IGHY | ≤ 0.25
KPPP | ≤ 0.25
NKWA | ≤ 0.25
SGHQ | ≤ 0.25
NRMH | ≤ 0.25
WTVC | ≤ 0.25
IDTS | ≤ 0.25
PGDW | ≤ 0.25
SSVY | 8.85
GELL | 12.9
QYVQ | ≤ 0.25
AHDC | ≤ 0.25
KEPW | ≤ 0.25

Variant | enrichment ratio
IGMR | ≤ 0.25
GGFW | ≤ 0.25
SQYE | ≤ 0.25
DEQG | ≤ 0.25
MNEQ | ≤ 0.25
NNNV | ≤ 0.25
VIQM | ≤ 0.25
FNYD | ≤ 0.25
MFIW | ≤ 0.25
IGGV | ≤ 0.25
QRLM | ≤ 0.25
FQII | ≤ 0.25
WSFH | ≤ 0.25
HMWI | ≤ 0.25
MERK | ≤ 0.25
YPCM | ≤ 0.25
FMRM | ≤ 0.25
NLFV | ≤ 0.25
WYTY | ≤ 0.25
MCCV | ≤ 0.25
IHRV | ≤ 0.25
DPIQ | ≤ 0.25
FYFS | ≤ 0.25
MQFG | 3.71
GFRA | ≤ 0.25
LRMK | ≤ 0.25

Variant | enrichment ratio
SCNI | ≤ 0.25
QLKK | ≤ 0.25
GCGE | ≤ 0.25
FGEA | ≤ 0.25
HDPF | ≤ 0.25
IRAS | ≤ 0.25
SLWL | ≤ 0.25
LNTE | ≤ 0.25
SGAS | 7.47
KKHY | ≤ 0.25
KNLK | ≤ 0.25
VVYL | ≤ 0.25
AQRE | ≤ 0.25
GSPI | ≤ 0.25
WCFY | ≤ 0.25
SVCF | 4.45
VVAC | ≤ 0.25
WRAD | ≤ 0.25
AKGG | ≤ 0.25
QRMG | ≤ 0.25
TYEA | ≤ 0.25
MVNG | ≤ 0.25
KYSK | ≤ 0.25
LWMW | ≤ 0.25
GFPH | ≤ 0.25
GRCI | ≤ 0.25

Variant | enrichment ratio
LPCV | ≤ 0.25
FTVH | ≤ 0.25
GFRQ | ≤ 0.25
IAFG | ≤ 0.25
AMFR | ≤ 0.25
VIAT | ≤ 0.25
FWDY | ≤ 0.25
RKCI | ≤ 0.25
MMGD | ≤ 0.25
WQYV | ≤ 0.25
MYYF | ≤ 0.25
ALNR | ≤ 0.25
PCHS | ≤ 0.25
AKMS | 3.84
NDQY | ≤ 0.25
FELL | 5.65
QADQ | 6.93
RRDA | ≤ 0.25
MRTH | ≤ 0.25
SHRI | ≤ 0.25
TNST | 12.6
GWKN | ≤ 0.25
TLMS | 1.83
